# Over roughly 33,000 sequences, “E-score (-0.5 to 0.5)” has its median near -0.013; the highest 2% begin near 0.3. Some of the results follow.
# Biological target: T1, Msn1 (UniProt P22148)
# T1 sequence: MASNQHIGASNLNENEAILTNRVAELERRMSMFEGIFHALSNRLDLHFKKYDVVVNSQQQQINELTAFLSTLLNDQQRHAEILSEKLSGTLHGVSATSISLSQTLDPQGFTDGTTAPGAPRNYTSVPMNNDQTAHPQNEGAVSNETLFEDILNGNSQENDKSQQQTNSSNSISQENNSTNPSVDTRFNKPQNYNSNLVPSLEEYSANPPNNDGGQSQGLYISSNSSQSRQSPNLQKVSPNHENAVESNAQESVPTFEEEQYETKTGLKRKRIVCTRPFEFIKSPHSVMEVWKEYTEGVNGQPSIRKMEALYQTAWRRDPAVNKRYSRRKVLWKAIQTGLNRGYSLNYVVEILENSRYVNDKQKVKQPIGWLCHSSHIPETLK
# Test: PBM E-score (8-mer binding enrichment) (E-score (-0.5 to 0.5)); higher = stronger / more preferred TF binding; most listed sequences are background and not binding sites
# Settings: protein concentration: 200 nM; construct: GST-full length
# Procedure, shortened: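 Universal all-10-mer Agilent arrays, double-stranded by primer extension on fresh or once-stripped slides, were probed with about 100-200 nM GST-tagged yeast transcription factors made by PURExpress. Fluorescent anti-GST detected bound protein, and masliner normalised the scans. E-scores from the Universal PBM Analysis Suite were given to each ungapped eight-base word pooled with its reverse complement.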
row,Sequence,PBM E-score
1,GGCCAACA,-0.221
2,CAAGACAG,0.0634
3,AGACGGTG,-0.21
4,CAGCAATG,-0.1
5,CTACCTTC,-0.118
6,ACGAGTTC,0.0338
7,CAAAGACG,0.104
8,AACGCCAC,-0.0561
9,CATGATTA,0.256
10,CTCATCGA,-0.0387
11,AAAGCAGC,0.0538
12,ACTACCCG,0.0661
13,ATGCCGAC,-0.0749
14,GCCGCCGC,-0.262
15,ACCTCTCA,-0.232
16,ATGGGGAC,0.239
17,CTACTAAC,0.0299
18,GCCGTTCA,-0.102
19,GAGACCTA,-0.0946
20,CCATAGAG,0.0389
21,ACCACAAT,-0.136
22,GAACGCGC,0.0251
23,AGAGTGGA,-0.00496
24,GCGACGAC,0.0204
25,CACCGATC,0.0588

row,Sequence,PBM E-score
1,CAATGCCC,-0.134
2,AGGTGAAA,0.122
3,ACTCACAA,-0.13
4,GCGGATCC,-0.207
5,CCACAAGG,0.232
6,AATTCATG,0.063
7,CCACTAGC,-0.213
8,AGACACCA,0.0722
9,CCTGTTGA,-0.00042
10,AGAGTACA,0.0877
11,ACCCCGCA,0.0452
12,ATTACGGG,-0.0761
13,AGTTGTAT,0.101
14,TAAGATCA,0.0901
15,GAATATGC,0.0193
16,GCAAGCCA,-0.124
17,GAGCGTTA,0.0482
18,GATACGGA,0.0955
19,CTACGGAC,0.0723
20,ATTGGCAC,0.012
21,AGATCGCT,-0.0127
22,ATTCAAAT,0.188
23,CTCGCTAA,0.149
24,AAAAACAG,0.0408
25,AGGCAAAT,0.124

row,Sequence,PBM E-score
1,AGCAATAA,-0.104
2,GACTTGCA,0.201
3,AACGGAAC,0.143
4,TCGACCCA,-0.228
5,ATGCATGC,0.0255
6,AGGCGAGG,-0.201
7,ACAAACTG,0.158
8,ATGTTATC,0.144
9,CGGGAAGA,0.00549
10,GCCAGACA,0.13
11,AGTGCTGG,-0.0583
12,CTACTGAC,-0.00957
13,ATACCGGG,0.0662
14,GGTGTCAC,-0.0252
15,AGAACTAT,0.0667
16,TGTATCAA,0.325
17,ACCCGAGC,0.1
18,ATTCTCTG,-0.052
19,AGTTATCA,0.111
20,CGCCTCCG,-0.211
21,GAGCTATA,-0.214
22,ATATACGC,-0.164
23,CGAAGTCC,0.162
24,TGCCCGCA,0.0376
25,AATGCTGA,-0.0988

row,Sequence,PBM E-score
1,GCCGCTGA,0.0352
2,GTATAAGA,0.0322
3,GACCCTCA,-0.0598
4,CCCACCTC,-0.192
5,GAGACAGC,-0.0865
6,AGCTTACG,-0.0881
7,GCAGATAA,0.0478
8,AATTATGA,0.208
9,CCAAGTCG,0.0204
10,CGCCTAAG,-0.0963
11,ATCGTGCG,0.306
12,CGCCACTA,-0.0772
13,CGGAGACG,0.041
14,CGAACTGA,-0.0123
15,GAACTCCA,0.131
16,TCCACAGA,0.184
17,ACGCAATC,-0.094
18,ACGTTCCA,-0.211
19,AACTAGGT,0.118
20,CCTGGACG,-0.182
21,AGCAATTA,0.0143
22,AATGACTG,0.0373
23,AACTGAGG,0.19
24,GGTGAACA,-0.231
25,AGGTACAA,0.394

row,Sequence,PBM E-score
1,CGAAGCCA,-0.0797
2,ATTCCGAC,0.162
3,AACCACAA,0.042
4,GCGCCTTA,0.13
5,AAATCTCT,0.0194
6,GTAACTAC,-0.0463
7,CGGAGGCA,0.0744
8,CGACAGAC,-0.0767
9,AACCTGTA,0.0278
10,AGTGGACG,0.212
11,ACTATTTG,0.12
12,GACCCCGC,-0.278
13,CCACCCTC,-0.111
14,CCCAGGAA,-0.112
15,GAAGACGA,0.00942
16,ACGTTGCA,-0.0332
17,ATTCGAAT,-0.00617
18,ATGCCGAA,0.129
19,CTTGGCTA,0.124
20,CTTAGGCA,-0.0986
21,ACCGTCAC,-0.135
22,GACATCTC,0.288
23,AAGAGGTA,-0.0393
24,TATGCGAA,0.0104
25,CGTTGTAG,0.0727

row,Sequence,PBM E-score
1,AACGCTTA,-0.15
2,CGCTATTA,0.128
3,AGGTATCG,0.0911
4,CTGGGGTC,-0.217
5,CATTTGGG,0.0262
6,AAGTCTAT,0.161
7,CAAAGGAA,0.116
8,GAGCCGTA,0.0576
9,GCAATTCA,0.0495
10,CGCACGTC,0.205
11,CACCAATA,0.121
12,AGACTAAT,0.157
13,ACCAGATA,0.113
14,ACCTGCTC,-0.0808
15,CCCCACTC,-0.24
16,AGCTGGCG,-0.182
17,TAGAGTGA,-0.0167
18,CATGTAAC,0.143
19,AATAGTAG,0.11
20,GTTTGATA,0.127
21,CGCAATTA,0.0552
22,AAAGTACG,0.141
23,GTCATACA,0.203
24,ACAAAGCT,0.256
25,AGTGCATG,0.0205

row,Sequence,PBM E-score
1,ATATCGCC,0.0873
2,GCCTTCAA,-0.151
3,ACTTTCAC,0.243
4,CAACCGTC,-0.206
5,AACACACT,-0.12
6,CCTAGCGC,-0.165
7,ATTATACC,0.15
8,ATATTGCA,0.0964
9,TAGCCAAA,0.0767
10,CTCTAGTC,-0.163
11,TGACCCAA,0.0175
12,AAACTGGC,-0.0541
13,ATCAGAAC,-0.125
14,AGGGGGTA,-0.301
15,AGCTGGCA,-0.121
16,CCTTGCGA,0.028
17,AGTCGGAG,-0.189
18,GGCACGTA,0.0163
19,GCAACGGC,-0.0426
20,ATACGGGG,-0.124
21,CTTTCGAC,0.00939
22,AGCCCTGG,-0.37

# — the supplement of paper PMC3334620
